The other results are listed elsewhere or left out. Further columns of the screen follow, without active or inactive calls.

Among the data in PubChem BioAssay AID1745853 (National Center for Advancing Translational Sciences (NCATS), 2022) are activity change, negative = inhibition values, retold here.

What all share (experiment): Primary Screen for Target Class Profiling of Small Molecule Inhibitors of Methyltransferases
For assay [1], the target named is Glycine N-methyltransferase (Homo sapiens) (UniProt Q14749). To be noted: purified enzyme, MTase-Glo SAH luminescence; measured here: GNMT inhibition; at 40 µM; stronger effect = lower value. In outline: (§1)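 Each enzyme was reacted with SAM and its substrate, with compounds tested once at 40 uM; SAH formed was read by MTase-Glo luminescence.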
The target of assay [2] is Guanidinoacetate N-methyltransferase (Homo sapiens) (UniProt Q14353). To be noted: purified enzyme, MTase-Glo SAH luminescence; measured here: GAMT inhibition; at 40 µM; stronger effect = lower value. In outline:
as §1

Assay [3] deals with Histamine N-methyltransferase (Homo sapiens) (UniProt P50135). To be noted: purified enzyme, MTase-Glo SAH luminescence; measured here: HNMT inhibition; at 40 µM; stronger effect = lower value. In short, it runs like this:
as §1

The target of assay [4] is Nicotinamide N-methyltransferase (Homo sapiens) (UniProt P40261). The note with it: purified enzyme, MTase-Glo SAH luminescence; measured here: NNMT inhibition; at 40 µM; stronger effect = lower value. In short, it runs like this: as §1
Assay [5] concerns the target Phenylethanolamine N-methyltransferase (Homo sapiens) (UniProt P11086). To be noted: purified enzyme, MTase-Glo SAH luminescence; measured here: PNMT inhibition; at 40 µM; stronger effect = lower value. In outline:
as §1
On the % scale 0 is the no-effect control and ±100 the full control effect.

Regarding `CC(C)OCCCn1c(=O)c2ccccc2n2c(CCC(=O)N3CCN(c4ccccc4F)CC3)nnc12`, the activity change, negative = inhibition in assay [1] was -10.4%; in assay [2], 2.61%; in assay [3] it was -1.42%; in assay [4] it was -14.2%; in assay [5], -2.31%.
In the same order, the values of `CN1C(=O)c2cc(C(=O)NC3CCN(Cc4ccccc4)CC3)nn2CC1(C)C(=O)NCc1ccc(F)cc1` (stereo not given) are 3.8%, 1.44%, -6.29%, 3.96% and -1.05%.
In the same order, the values of `CCc1ccc(N2C(=O)c3cc4sccc4n3CC2(C)C(=O)NC2CCCC(C)C2C)cc1` (stereo not given) are -4.36%, 0%, 3.17%, 4.13% and 0.39%.
In the same order, the values of `Nc1ccc(-c2ccc3ncc4ccc(=O)n(-c5cccc(C(F)(F)F)c5)c4c3c2)cn1` are -31.5%, -7.65%, -14.6%, -67.4% and -11.2%.
As to `CCCCn1c(=O)n(Cc2ccccc2F)c(=O)c2[nH]c(Cc3ccc(NC(C)=O)cc3)nc21`, the activity change, negative = inhibition in assay [1] was 2.92%; in assay [2] it was 7.84%; in assay [3], 5.91%; in assay [4] it was -40%; in assay [5], -1.4%.
In the same order, the values of `Oc1cccc(C2NC(=S)Nc3cccc(F)c32)c1` (stereo not given) are -6.78%, 13%, -0.064%, -13.8% and -15.3%.
In the same order, the values of `CC(C)Cn1c(=O)c2ccccc2n2c(SCC(=O)N3CCN(c4ccccc4F)CC3)nnc12` are -1.72%, 4.28%, 3%, 1.69% and 1.33%.
In the same order, the values of `COc1cccc(CSc2nnc3n(CCC(C)C)c(=O)c4ccccc4n23)c1` are -5.18%, 0%, 1.41%, -12.1% and 3.53%.
Regarding `CCC(=O)c1ccc2c(c1)N(CCCN(C)C)c1ccccc1S2`, the activity change, negative = inhibition was -0.103% in assay [1]; 8.22% in assay [2]; -5.71% in assay [3]; -32.9% in assay [4]; -1.21% in assay [5].
In the same order, the values of `O=C(CCc1nnc2n(Cc3ccc(Cl)cc3)c(=O)c3ccccc3n12)N1CCC(Cc2ccccc2)CC1` are -5.27%, 1.43%, 4.17%, 5.75% and -0.035%.
In the same order, the values of `O=c1cc(-c2cccnc2)oc2c(NCc3ccc(F)cc3)nccc12` are -16.5%, -8.04%, -5.86%, -26.2% and -27%.
In the same order, the values of `COc1c2cc(c(O[C@@H]3O[C@H](CO)[C@@H](O)[C@H](O)[C@H]3O)c1OC)CCCCC(O)CCc1ccc(O)c-2c1` (stereo not given in full) are -36.4%, -17.9%, -22.6%, -29.2% and -8.16%.
As for `CC1CCC(NC(=O)CCn2ccc3cc(S(=O)(=O)N4CCCCC4)ccc32)CC1` (stereo not given), the activity change, negative = inhibition was determined as 5.34% in assay [1]; 2.48% in assay [2]; 6.9% in assay [3]; 4.09% in assay [4]; 3.19% in assay [5].
In the same order, the values of `CC(C)CCn1c(=O)c2ccc(C(=O)NC(C)C)cc2n2c(=O)n(Cc3ccccc3Cl)nc12` are 5.07%, 0%, 5.44%, 3.67% and 1.48%.
In the same order, the values of `Cc1nc2ccccn2c(=O)c1CCN1CCC(C(=O)c2ccc(F)cc2)CC1` are 3.73%, 11%, 5.31%, -3.04% and 7.58%.
In the same order, the values of `CC(C)(C)c1cc(Br)cc([C@H](CC(=O)O)NC(=O)CNC(=O)c2cc(O)cc(NC3=NCC(O)CN3)c2)c1` (stereo not given in full) are 2.06%, -4.09%, -9.3%, -17.3% and -8.51%.
As to `O=C1NC2(Cc3ccccc31)CN(C(=O)c1ccccc1Cl)C2`, the activity change, negative = inhibition is -8.66% in assay [1]; -8.94% in assay [2]; -3.59% in assay [3]; -18.5% in assay [4]; -26.8% in assay [5].
In the same order, the values of `O=C(CCc1nnc2n(Cc3ccc(F)cc3)c(=O)c3ccccc3n12)N1CCOCC1` are -8.82%, 4.21%, 0.78%, 2.34% and -2.09%.
On to `COc1ccccc1CNC(=O)c1cc2n(n1)CC(C)(C(=O)NC1CCCC1)N(C)C2=O` (stereo not given), for which the activity change, negative = inhibition in assay [1] stood at 5.25%; in assay [2], 0%; in assay [3], 1.2%; in assay [4], 3.11%; in assay [5] it was 1.23%.
In the same order, the values of `CCCc1nnc([C@H]2CCN(C(=O)c3ccccc3)C2)o1` are -7.37%, -13%, -3.97%, -19.3% and -15.9%.
In the same order, the values of `CCOC(=O)c1cc2n(n1)CC(C)(C(=O)NCc1ccc(F)cc1)N(c1ccc(F)cc1)C2=O` (stereo not given) are 1.15%, 1.44%, 3.62%, 0.575% and -2.42%.
In the same order, the values of `O=c1n(CCCN2CCN(c3cccc(Cl)c3)CC2)nc2ccccn12` are 2.89%, 14.1%, 4.76%, -4.72% and 11.2%.
For the compound `Cc1ccc(S(=O)(=O)c2nnn3c2nc(NC(C)C)c2ccccc23)cc1`, the activity change, negative = inhibition was -4.53% in assay [1]; 4.61% in assay [2]; 2.52% in assay [3]; 0.459% in assay [4]; -7.53% in assay [5].
In the same order, the values of `COCCN1C(=O)c2cc(-c3ccccc3)nn2CC1(C)C(=O)NCc1ccccc1OC` (stereo not given) are 3.79%, 1.01%, 4.49%, 7.65% and -0.788%.
In the same order, the values of `CCCCS(=O)(=O)N1C[C@@H](C(N)=O)[C@H](C2CCN(C)CC2)C1` are -0.952%, -0.032%, 0.633%, -1.85% and -0.525%.
In the same order, the values of `Cc1ccccc1C(C(=O)NC1CCCCC1)N(C(=O)Cn1ccnc1C)c1cccc(F)c1` (stereo not given) are 2.17%, 5.57%, 5.49%, -13.3% and -3.19%.
For `Cc1ncc2n1C(=O)N(C1CCN(Cc3ccc(F)cc3)CC1)C2`, the activity change, negative = inhibition is -4.47% in assay [1]; -1.29% in assay [2]; -3.88% in assay [3]; -3% in assay [4]; -1.3% in assay [5].
In the same order, the values of `CC[C@H](C)/C=C(C)/C=C/C1=CC2=CC(=O)[C@]3(C)OC(=O)[C@@H](C(C)=O)[C@@H]3C2=CO1` are -3.02%, 3.13%, 0.76%, -12.7% and 3.19%.
In the same order, the values of `CC1(C(=O)NC2CCCCCC2)Cn2c(ccc2-c2ccccc2)C(=O)N1Cc1ccccc1` (stereo not given) are 1.37%, 0.658%, -1.62%, -6.89% and -2.62%.
